# Measured values reported in PubChem BioAssay AID1347417 (National Center for Advancing Translational Sciences (NCATS), 2020).
# Among all 120,000 compounds or so, about 5,300 (4.4%) were called active. Inconclusive means that the source gave no clear call. Such entries were picked first, then a sample of the others. Calls follow the shape of the dose curve; as a rule, active = well fitted inhibition curve with a large enough effect; inconclusive = small, poorly fitted or top-dose-only effect; inactive = no such curve, though single readings can be large or run the other way. Potencies of inconclusive entries are doubtful fits and often do not repeat.
# Experiment: qHTS Primary assay for Inhibitors of Plasmodium falciparum Dd2 growth in vitro; also: nearly all actives have a fitted effect of over 65% in size;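 as to activity, negative = inhibition: plate controls were DMSO vehicle for no effect and reference drug for full effect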
# Conditions: P. falciparum Dd2 growth, SYBR Green, 72 h; activity, negative = inhibition: at 28.9 µM (top of the series) unless noted; series mostly up to 28.9 µM
# How it was run: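 Readout: SYBR Green fluorescence, 485 nm excitation, 535 nm emission, after ~16 h lysis at 37C. Before that, Dd2-infected red cells (2.5% hematocrit) grew 72 h with compound, 29 uM top final concentration.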
# Potency is read from the fitted curve at half-maximal effect; tags tell the direction and shape of the fitted curve.
SMILES,Potency,outcome,"activity, negative = inhibition"
Cc1ccccc1NC(=O)C(=O)NCC(c1ccc2c(c1)OCO2)N1CCN(c2ccccc2)CC1 (configuration not stated),"inconclusive: 17.8 µM [inhibitor, single point]",–,–
CCOc1ccc(C2C(C(=O)Nc3ccccc3)=C(C)Nc3nc(-c4ccccc4Cl)nn32)cc1OC (configuration not stated),active: 8.91 µM,–,–
CCCN(C(=O)c1cc(S(=O)(=O)N2CCc3ccccc32)cn1C)c1ccc(OCC)cc1,"inconclusive: 10 µM [inhibitor, single point]",–,–
Cc1cc(C)c(CNC(=O)c2cc(-c3ccccc3F)cc3c2OCCN3C)c(=O)[nH]1,active: 6.31 µM,–,–
CC(C)c1ccc(CC(=O)N2CCCc3ncc(C(=O)NCc4ccncc4)cc32)cc1,"inconclusive: 31.6 µM [inhibitor, single point]",–,–
Cc1ccc(NC(=O)N2CCC(CC(=O)NCc3ccccc3)C2)cc1C (configuration not stated),inactive,–,–
CNC(=O)C1CCCN(Cc2nc(-c3cccc(Oc4ccccc4)c3)oc2C)C1 (configuration not stated),"inconclusive: 10 µM [inhibitor, single point]",–,–
CCOC(=O)c1cnc2c(ccc3ccccc32)c1Nc1ccc(N(C)C)cc1,"inconclusive: 17.8 µM [inhibitor, single point]",–,–
CCc1ccc(OCC2c3cc(OC)c(OC)cc3CCN2C(=O)c2ccc(S(=O)(=O)N3CCCC3)cc2)cc1 (configuration not stated),active: 11.2 µM,–,–
COc1nccnc1NC1CCN(C(=O)Cc2cccs2)CC1,–,inactive [at 5.79 µM],–
CCNC(=O)c1cccnc1OC1CCN(Cc2ccccn2)C1 (configuration not stated),inactive,–,–
COCc1noc(CC2CCOC3(CCN(C(=O)c4ccc5[nH]ccc5c4)CC3)C2)n1 (configuration not stated),inactive,–,–
C[C@@H](c1ccccc1)N1C(=O)[C@@H]2CN(C(=O)c3ccc4c(c3)OCO4)CCN2C1=O,inactive,–,–
Cc1ncc2n1C(=O)N(C1CCN(Cc3ccccc3F)CC1)C2,"inconclusive: 31.6 µM [inhibitor, single point]",–,–
COc1cc(OC)cc(C(=O)N2CCCN(c3cc(-c4ccc(C)c(C)c4)[nH]n3)CC2)c1,active: 11.2 µM,–,–
Cc1noc2ncnc(N3CCN(c4cccc(C(F)(F)F)c4)CC3)c12,"inconclusive: 11.2 µM [inhibitor, single point]",–,–
COc1ccc(N2CCN(C(CNS(=O)(=O)c3ccc(OC)c(C)c3)c3ccco3)CC2)cc1 (configuration not stated),"inconclusive: 6.31 µM [inhibitor, partial curve]",–,–
O=C(c1ccccc1F)N1CCCN(c2nc3ncccc3o2)CC1,inactive,–,–
COc1ccc(C)cc1-n1c(-c2ccc(Cl)cc2)cc2c1CC(C)(C)CC2=O,active: 1 µM,–,–
CCOCCCNC(=O)N1CCC(OC2CCN(S(C)(=O)=O)CC2)CC1,inactive,–,–
COc1ccc(NC(=O)Nc2ccc(C)n(CC(=O)N3CCCCCC3)c2=O)cc1,inactive,–,–
O=C(CSc1nc2c([nH]c3ccccc32)c(=O)n1-c1ccccc1)Nc1ccc2c(c1)OCO2,active: 11.2 µM,–,–
CNC(=O)N1CCC(C2CCN(Cc3ccccc3C#N)C2)CC1 (configuration not stated),"inconclusive: 8.91 µM [inhibitor, partial curve, poor fit]",–,–

SMILES,Potency,outcome,"activity, negative = inhibition"
O=C(NCc1cc(F)ccc1F)C1CCN(c2cn[nH]c(=O)c2)C1 (configuration not stated),"inconclusive: 1.41 µM [inhibitor, partial curve]",–,–
O=S(=O)(c1ccc(Cl)cc1)c1nnn2c1nc(NC1CCCC1)c1sccc12,"inconclusive: 10 µM [inhibitor, single point]",–,–
COC(=O)c1ccc2c(=O)n(CCCCCC(=O)NCCc3ccccc3)c(=O)[nH]c2c1,"inconclusive: 0.0398 µM [inhibitor, full curve, poor fit]",–,–
CN1C(=O)C(CC(=O)NCC2CCCCC2)Sc2ncccc21 (configuration not stated),inactive,–,–
Cc1cc(NC(=O)N2CCC(CN3CCCCCC3)CC2)ccc1Br,"inconclusive: 11.2 µM [inhibitor, single point]",–,–
O=C1CO[C@H]2CN(Cc3ccncc3)C[C@H]2N1Cc1ccc(F)cc1,inactive,–,–
Cc1ccc(C2(O)CCN(c3nccc(CCC(F)(F)F)n3)CC2)nc1,"inconclusive: 7.94 µM [inhibitor, partial curve, poor fit]",–,–
O=C(c1nc(-c2ccccc2)c2ccccn12)N1CCOCC1,inactive,–,–
COc1ccccc1CCC(=O)Nc1ccc(-c2nnc3n2CCCC3)cc1,inactive,–,–
O=C(NC1CCN(c2cc(-c3ccc(F)cc3)[nH]n2)C1)c1cccnc1 (configuration not stated),"inconclusive: 11.2 µM [inhibitor, single point]",–,–
CCOc1ccc(CNC(=O)c2oc3c(c2C)-c2nn(Cc4cccc(Cl)c4)cc2CC3)cc1,active: 11.2 µM,–,–
CCn1c(=O)c2ccnn2c2ccc(C(=O)Nc3ccc(C)c(F)c3)cc21,"inconclusive: 2.24 µM [inhibitor, partial curve, poor fit]",–,–
COc1ccccc1CCNC(=O)Cc1c(C)c2cc(Cl)c(O)cc2oc1=O,"inconclusive: 8.91 µM [inhibitor, single point]",–,–
O=C(c1ccc2c(c1)OCO2)N1CC2(Cc3ccccc3NC2=O)C1,–,–,inconclusive: -118% [inhibitor]
COc1ccc(CN2CCC3(CC(=O)Nc4ccccc4N3)C2)cc1 (configuration not stated),"inconclusive: 10 µM [inhibitor, single point]",–,–
CCOC(=O)c1ccc(N2C(=O)c3n[nH]c(-c4ccco4)c3C2c2ccc(C(=O)OC)cc2)cc1 (configuration not stated),"inconclusive: 7.94 µM [inhibitor, partial curve, poor fit]",–,–
O=C(c1ccc2c(c1)N(Cc1ccc(Cl)cc1)C(=O)c1ccccc1S2(=O)=O)N1CCCC1,"inconclusive: 0.0708 µM [inhibitor, full curve, poor fit]",–,–
CCC1(O)CCC12CCN(C(=O)c1ccncc1)CC2 (configuration not stated),inactive,–,–
O=C1NCc2ccccc2CC12CCN(Cc1ccc(F)cc1O)C2 (configuration not stated),"inconclusive: 8.91 µM [inhibitor, partial curve, poor fit]",–,–
O=C(Cn1cccc1-c1nc(-c2ccccc2)no1)Nc1cc(F)ccc1Cl,"inconclusive: 3.98 µM [inhibitor, single point]",–,–
COCCNC(=O)[C@@H]1C[C@@H](O)CN1C1CCN(C(=O)CCn2nc(C)cc2C)CC1,inactive,–,–
O=C(CCC1N=C2c3ccccc3N=C(SCC(=O)Nc3cccc(Cl)c3)N2C1=O)NCc1ccco1 (configuration not stated),"inconclusive: 10 µM [inhibitor, single point]",–,–
O=C([C@H]1C[C@H](Oc2ccccc2)CN1C(=O)NCc1ccc(F)cc1)N1CCOCC1,inactive,–,–

SMILES,Potency,outcome,"activity, negative = inhibition"
CC(C)(C)C(=O)N1CCC2(CC1)C(=O)N(CC(=O)Nc1cccc(Cl)c1)CN2c1ccccc1,active: 3.98 µM,–,–
CCN1C(=O)c2ccccc2S(=O)(=O)c2ccc(C(=O)NCc3ccccc3)cc21,"inconclusive: 12.6 µM [inhibitor, partial curve, poor fit]",–,–
Cc1cn2nnc(C(=O)N3CCC(C(=O)NCc4cccc(Cl)c4)CC3)c2c(=O)[nH]1,active: 4.47 µM,–,–
COc1ccc(CN2C=C(C(=O)OCc3nc(-c4ccc(F)cc4)no3)C(C)=NS2(=O)=O)cc1,"inconclusive: 17.8 µM [inhibitor, single point]",–,–
CCCCOc1ccc(C(=O)Nc2ccc3c(c2)CCCN3C(=O)c2cccs2)cc1,"inconclusive: 17.8 µM [inhibitor, single point]",–,–
COc1ccc(-c2cc(-c3cnn(C)c3)cn3cncc23)cn1,active: 10 µM,–,–
Cc1ccc(N(C)C(=O)c2sc3nc4n(c(=O)c3c2C)CCCC4)cc1C,"inconclusive: 17.8 µM [inhibitor, single point]",–,–
CN1C(=O)CC(C(=O)O)C12CCN(Cc1nc3ccsc3c(=O)[nH]1)CC2 (configuration not stated),inactive,–,–
CCCCN(CC)C(=O)CSc1nc2n[nH]c(C)c2c(=N)n1-c1ccc(CC)cc1,"inconclusive: 17.8 µM [inhibitor, single point]",–,–
CC(C)NC(=O)NCc1nnc2n1C(C(=O)NC(C)C)CC2 (configuration not stated),inactive,–,–
COc1ccccc1OCc1nc2c(n1Cc1ccccc1)C(=O)N(Cc1cccc(Cl)c1)CCN2,active: 10 µM,–,–
CCOc1ccc(-c2cccc(NS(=O)(=O)c3ccc(C)s3)c2)nn1,inactive,–,–
CC(C)(C)CC(=O)Nc1nc2c(s1)C[C@@H]1[C@](C)(CO)[C@H](O)CC[C@@]1(C)[C@@H]2CC(=O)N1CCC(C(N)=O)CC1,"inconclusive: 7.94 µM [inhibitor, partial curve]",–,–
Cc1c(CN2C[C@@H]3C(=O)N(CCCN4CCCC4=O)C(=O)[C@@H]3C2)cnn1C,inactive,–,–
Cc1cn2nc(-c3nc(C4CCCN(C(=O)c5ccc(C)c(F)c5)C4)no3)cc2c(=O)[nH]1 (configuration not stated),"inconclusive: 1.41 µM [inhibitor, partial curve]",–,–
COc1ccc(/C=C/CN2CCN(Cc3ccccc3)CC(O)C2)cc1 (configuration not stated),"inconclusive: 12.6 µM [inhibitor, partial curve]",–,–
CN(C)c1cccc(C(=O)N2CCN(C(=O)c3nnn4c3COC(c3ccccc3)C4)CC2)c1 (configuration not stated),"inconclusive: 2 µM [inhibitor, partial curve, poor fit]",–,–
Cc1ccc(N(CC(=O)N2CCN(c3cc(C)ccc3C)CC2)S(=O)(=O)c2c(C)nn(C)c2C)cc1,"inconclusive: 17.8 µM [inhibitor, single point]",–,–
COc1ccc(-c2cc3c(=O)n(CCNC(=O)c4c(F)cccc4F)ccn3n2)cc1,"inconclusive: 5.62 µM [inhibitor, partial curve, poor fit]",–,–
CC1=C[C@@H](CNC(=O)CCCC(=O)O)[C@H](C(C)C)C[C@H]1Cc1nc2ncccc2[nH]1,"inconclusive: 31.6 µM [inhibitor, single point]",–,–
Cc1cccc(OCC(=O)c2ccc3c(c2)N(C(C)C(=O)N2CCCC2)C(=O)CO3)c1C (configuration not stated),"inconclusive: 1 µM [inhibitor, full curve]",–,–
